Source: PubChem BioAssay AID1745845 (National Center for Advancing Translational Sciences (NCATS), 2022)
The campaign covered roughly 360,000 compounds. About 2,600 (0.72%) were called active. Inconclusive means that the source gave no clear call. Such entries were picked first, then a sample of the others. The call rests on the fitted dose curve; in most records, active means well fitted inhibition curve with a large enough effect; inconclusive means small, poorly fitted or top-dose-only effect; inactive means no such curve, though single readings can be large or run the other way. A potency beside an inconclusive call is a rough fit, not a confirmed value.

Assay: Primary qHTS for Inhibitors of ATXN expression; further: nearly all actives have a fitted effect of over 55% in size
Conditions: HEK-293 ATXN2-luciferase reporter, luminescence, 24 h; activity change, negative = inhibition: at 57 µM (top of the series)
In short: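 qHTS (up to 57 uM final) was run with 24 h compound exposure of reporter cells at 37 °C. Each well was multiplexed: SteadyGlo luminescence measured ATXN2-luciferase expression after a fluorogenic Gly-Phe-AFC viability readout (25 uM final).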
On the % scale 0 is the no-effect control and ±100 the full control effect; potency means the concentration at half of the fitted maximal effect; tags describe the fitted curve by direction and shape.

| SMILES | Potency | activity change, negative = inhibition |
| --- | --- | --- |
| COc1ccc(-c2cc(C(=O)Nc3cccc(O)c3)no2)cc1 | inconclusive: 44.7 µM [inhibitor, single point] | – |
| CC(=O)c1cccc(NC(=O)c2oc(=O)c3ccccc3c2-c2ccccc2)c1 | – | inactive: 0.0872% |
| Cc1cccc(NC(=O)c2nc[nH]c2C(=O)N[C@H](C)c2ccccc2)c1 | inconclusive: 31.6 µM [inhibitor, single point] | – |
| Cc1ccc(OCCCC(=O)NNC(=O)c2ccccn2)cc1 | inconclusive: 28.2 µM [inhibitor, partial curve] | – |
| COc1ccc(-c2noc(CCC(=O)N3CCN(c4ccccc4C(F)(F)F)CC3)n2)cc1 | inconclusive: 31.6 µM [inhibitor, partial curve, poor fit] | – |
| Cc1cc(NC(=O)CCC(=O)N(CC(=O)NC2CCCC2)Cc2ccccc2Cl)no1 | inconclusive: 7.08 µM [inhibitor, single point] | – |
| COc1ccc(CC2SC(N)=NC2=O)cc1 (stereo unspecified) | – | inactive: 0.938% |
| Cc1ccc(NC(=O)c2ncn(CCCN[C@H](C)c3cccc4ccccc34)n2)cc1C | inconclusive: 31.6 µM [inhibitor, single point] | – |
| CCN(CC)S(=O)(=O)c1ccc(N/N=C/c2ccc(O)cc2O)nc1 | active: 2.82 µM | – |
| COc1ccc(OC)c(NC(=S)NCCC(c2ccccc2)c2ccccc2)c1 | – | inactive: -12.8% |
| COc1ccc(N=C(NN)c2ccc3ccccc3n2)cc1 | inconclusive: 39.8 µM [inhibitor, single point] | – |
| COc1ccc(Nc2nc(-c3cccs3)nc3ccccc23)cc1S(=O)(=O)N1CCOCC1 | – | inactive: -3.61% |
| Cc1cc(NC(=O)/C=C/C(=O)N(c2ccccc2C)C(C(=O)NC2CCCC2)c2ccc(F)cc2)no1 (stereo unspecified) | active: 10 µM | – |
| O=C(OCn1ncc(Cl)c(Cl)c1=O)c1ccc(C(F)(F)F)cc1 | inconclusive: 39.8 µM [inhibitor, single point] | – |
| CC(=O)c1c(C)[nH]c(C(=O)CSc2nnc(-c3ccco3)o2)c1C | inconclusive: 15.8 µM [inhibitor, partial curve, poor fit] | – |
| COc1ccc2oc(=O)c(C(=O)Nc3cccc(C(=O)O)c3)cc2c1 | active: 0.891 µM | – |
| COc1ccc(OCc2cccc(C(=O)Nn3cc([N+](=O)[O-])cn3)c2)cc1 | active: 1 µM | – |
| CCNC(=O)/C(C#N)=C/c1c(N2CCCCCC2)nc2c(C)cccn2c1=O | – | inactive: -22.2% |
| Cc1cc(C(=O)COC(=O)c2ccccc2O)c(C)n1Cc1cccs1 | active: 0.708 µM | – |
| COCCN1Cc2cccc(C(=O)NCc3ccccn3)c2C1=O | – | inactive: -7.9% |
| CN1CCN(C2=C(Cl)C(=O)C(c3cnc(N4CCCCC4)s3)=C(Cl)C2=O)CC1 | inconclusive: 39.8 µM [inhibitor, single point] | – |
